According to patent US20200392251A1 (University of California, published 2020):

What was measured:
[1] = target: T1, N-terminal domain of tissue inhibitor of metalloproteinases 1 (nTIMP-1) (UniProt P01033 24-149, limits assumed); experiment: BLItz bio-layer interferometry; printed as 'Affinity ... (nM)'
T1 construct: domain: N-terminal domain; Periplasmically expressed and purified as reported elsewhere

[2] = target: T2, N-terminal domain of tissue inhibitor of metalloproteinases 2 (nTIMP-2) (UniProt P16035 27-153, limits assumed); experiment: as above
T2 construct: domain: N-terminal domain; Periplasmically expressed and purified as reported elsewhere

B1: human MMP-12 catalytic domain mutant D4 (cdMMP-12 D4) (enzyme)
chain: GPVWRKHDITYRIQNYTPDMHREDVDKAIEKAFQVWSNVTPLKFSKINTGEADILIVFARGEHGDFHPFDGKGGILAHAFGPGSGIGGDAHFDEDEFWTTSSGGTNLFLVAVHEIGHSLGLGHSSDPRAVMFPTYKYVDTNTFRLSQDDIRGIQSLYGHHHHHH
notes: PROSS-designed expression-optimised mutant; Cytoplasmically expressed in E. coli, purified on Ni-NTA; biotinylated for ELISA/BLI; also called cdMMP-12 mutant D4; modified D4
**Q.** How did the Kd [1] turn out when B1 was run?
**A.** 500 nM

**Q.** What about the Kd [2] of the same binder?
**A.** 290 nM
